Reference: article PMC4336329 (PLoS ONE, 2015)
Hit rate of the full screen: of about 310,000 compounds, about 14,000 (4.5%) showed an effect of 50% or more. Effects have a minus sign here. Some of the results follow.

Biological target: human ether-à-go-go-related gene (hERG) potassium channel (human, UniProt Q12809)
Test: primary screen, population patch clamp on CHO cells stably expressing hERG
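Note: peak tail current of the secondary pulse compared with the same well before compound.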

Chain of human ether-à-go-go-related gene (hERG) potassium channel (Q12809 whole entry, looked up): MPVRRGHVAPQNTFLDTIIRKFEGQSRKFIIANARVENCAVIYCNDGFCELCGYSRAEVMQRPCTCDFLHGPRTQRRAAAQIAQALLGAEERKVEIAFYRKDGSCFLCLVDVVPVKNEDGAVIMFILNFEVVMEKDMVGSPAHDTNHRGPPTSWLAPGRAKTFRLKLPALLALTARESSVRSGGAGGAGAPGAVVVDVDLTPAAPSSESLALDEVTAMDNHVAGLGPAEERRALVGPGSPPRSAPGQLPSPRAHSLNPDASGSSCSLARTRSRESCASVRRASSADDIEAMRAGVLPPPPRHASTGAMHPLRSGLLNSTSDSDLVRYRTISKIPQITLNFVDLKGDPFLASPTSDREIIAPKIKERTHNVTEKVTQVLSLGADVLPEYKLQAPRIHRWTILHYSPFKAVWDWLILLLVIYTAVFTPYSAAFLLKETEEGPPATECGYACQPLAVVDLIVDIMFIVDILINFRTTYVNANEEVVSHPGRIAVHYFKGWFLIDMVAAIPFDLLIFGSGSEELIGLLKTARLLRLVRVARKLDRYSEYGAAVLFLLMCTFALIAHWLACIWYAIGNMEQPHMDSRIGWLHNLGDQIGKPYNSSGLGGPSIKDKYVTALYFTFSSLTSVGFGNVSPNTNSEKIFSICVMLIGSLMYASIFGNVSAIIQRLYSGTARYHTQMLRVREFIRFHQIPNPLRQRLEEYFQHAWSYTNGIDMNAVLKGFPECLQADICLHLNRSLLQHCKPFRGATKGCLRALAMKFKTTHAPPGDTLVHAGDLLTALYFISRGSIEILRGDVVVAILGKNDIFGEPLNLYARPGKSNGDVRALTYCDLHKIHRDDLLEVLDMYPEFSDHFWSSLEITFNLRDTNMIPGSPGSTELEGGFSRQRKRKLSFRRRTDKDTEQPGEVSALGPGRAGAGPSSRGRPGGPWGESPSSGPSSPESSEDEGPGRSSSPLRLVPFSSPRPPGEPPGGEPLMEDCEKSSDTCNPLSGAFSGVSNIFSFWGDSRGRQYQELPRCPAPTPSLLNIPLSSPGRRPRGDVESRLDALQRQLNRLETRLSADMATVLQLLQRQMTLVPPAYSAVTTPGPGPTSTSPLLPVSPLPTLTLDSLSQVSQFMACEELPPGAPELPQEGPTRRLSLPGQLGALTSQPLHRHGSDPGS

| Compound | hERG current change (%, negative = inhibition) at 10uM [%] |
| --- | --- |
| COc1ccc(CCNC(=O)CCN2C(=O)c3cccc4cccc(c34)C2=O)cc1OC | -6.69 |
| O=c1c2ccccc2ncn1C1CCCCC1 | -19.4 |
| Cc1ccc(NS(=O)(=O)c2cc(-c3n[nH]c(=O)c4ccccc34)ccc2C)cc1 | 9.59 |
| CC(=O)N1N=C(c2ccccc2)CC1c1cccs1 (centres unmarked) | 0.963 |
| NC(=S)N=Nc1c(O)[nH]c2ccccc12 | 14.7 |
| COC(=O)C1=C(c2ccc(F)cc2F)C[C@@H]2CC[C@H]1N2C(=O)NCC1CC1 | 5.78 |
| CC1CC(C)CN(C(=O)C(C)N(C)CC(=O)Nc2ccc(Cl)cc2)C1.O=C(O)C(=O)O (centres unmarked) | -24 |
| CC1CCCCN1CCCNC(=O)c1nn(C)c2c1CSc1ccccc1-2 (centres unmarked) | -67.1 |
| CCS(=O)(=O)N1CCCC(C(=O)NCCc2ccc(OC)c(OC)c2)C1 (centres unmarked) | 13.1 |
| COc1ccc(-c2nc(NC(=O)c3ccccc3)sc2-c2ccc([N+](=O)[O-])cc2)cc1 | -1.45 |
| CN(C)CCCNc1nc2sc3c(c2c(=O)n1CCc1ccccc1)CCCCC3 | -28 |
| CCC(C)NC(=O)c1ccccc1NC(=O)c1ccccc1N(C)S(C)(=O)=O (centres unmarked) | 0.0444 |
| CC1CC(C)(C)NC(=S)N1CC(=O)N1CCN(Cc2ccccc2)CC1 (centres unmarked) | 12.4 |
| O=C(NC(=S)N1CCc2ccccc21)c1ccc(Br)o1 | 21 |
| O=C(CCCCCN1C(=O)CCC1=O)NCc1ccccc1 | 6.93 |
| NC(=O)c1ccc(-c2nnn(CC(=O)N(C3CCCC3)C3CCS(=O)(=O)C3)n2)cc1 (centres unmarked) | 4.72 |
| Cc1ccc(OCC(O)CN2CCN(CC(O)COC(C)C)CC2)c(C(C)(C)C)c1 (centres unmarked) | -65.2 |
| CCOC(=O)N1CCN(S(=O)(=O)c2cn(C)c(=O)n(C)c2=O)CC1 | 2.66 |
| O=C(NC(=S)NC1CCS(=O)(=O)C1)c1cccc([N+](=O)[O-])c1 (centres unmarked) | 11.4 |
| Cc1c(C(N)=O)c(-c2ccccc2)nn1-c1ccccc1 | -10.9 |
| CC(C)(C)CC(C)(C)NC(=O)c1ccccc1 | 1.34 |
| CCCc1cc(=O)[nH]c(SCC(=O)N(C)Cc2ccccc2)n1 | -1.55 |

| Compound | hERG current change (%, negative = inhibition) at 10uM [%] |
| --- | --- |
| O=S(=O)(Nc1ccc(Cl)cc1)c1ccc(N2CCOCC2)c(NC(=S)NC2CC2)c1 | 37.5 |
| Cc1nn(CC(=O)Nc2ccc3c(c2)nc(CCN2CCCCC2)n3C)c(=O)c2ccccc12 | -8.83 |
| CCOC(=O)c1c(NC(=O)COC(=O)Cn2c(C(F)(F)F)nc3ccccc32)sc(C)c1C | 10.7 |
| C=C(C)CNC(=S)N1CCNC(=O)C1CC(=O)OC (centres unmarked) | 16.1 |
| O=C(COC(=O)c1ncc(Cl)c(Cl)c1Cl)NC1CCCCCC1 | 19 |
| c1ccc(-n2ccnc2)cc1 | 12.3 |
| CCCc1n[nH]c2c1/C(=N\O)CCC2 | 22.3 |
| O=C(OCC(=O)N1CCc2ccccc21)c1n[nH]c(=O)c2ccccc12 | 26.5 |
| COC(=O)c1cc(OC)c(OC)cc1NC(=O)C1CCCO1 (centres unmarked) | -7.89 |
| Cc1cccc(NC(=S)N2CCC(c3nc4ccccc4o3)CC2)c1 | -21.9 |
| C/C(=N\NS(=O)(=O)c1ccccc1)c1cccc(NC(=O)c2cccc(Cl)c2)c1 | -6.56 |
| Cc1ccc(S(=O)(=O)N2CCCC2C(=O)Nc2nccs2)cc1 (centres unmarked) | 9.86 |
| CCCN1CCN(CCCNC(=O)c2ccc(CS(=O)c3ccccc3C)o2)CC1 (centres unmarked) | 2.01 |
| COc1ccc(CNc2ncc(-c3cccc([N+](=O)[O-])c3)n2C)c(OC)c1OC.O=C(O)C(=O)O | -47.5 |
| COc1cc(C(=O)N2CCN(CCCc3ccccc3)CC2)cc(OC)c1OC | -9.98 |
| Cc1cc(C)nc(NC(=O)Nc2ccccc2C(F)(F)F)n1 | 1.21 |
| C[C@@H]1CCC[C@]2(O[C@@H](CCO)C[C@H](O)[C@H]2O)O1 | 9.75 |
| COc1ccccc1N1CCN(C(=O)C2CCC(CNS(=O)(=O)c3ccc(NC(C)=O)cc3)CC2)CC1 (centres unmarked) | -29 |
| CCCC(=O)OCC(=O)Nc1ccc2c(c1)OCO2 | 8.4 |
| CCN(CC(=O)NCc1ccc(F)cc1)CC(=O)NC1CCCC1 | -0.0564 |
| S=c1[nH]nc(-c2cc(-c3ccsc3)n[nH]2)n1-c1cccc2ccccc12 | -12.6 |
| CCN(CC)C(=O)c1ccc(NC(=O)Nc2ccccc2F)cc1 | -3.74 |

| Compound | hERG current change (%, negative = inhibition) at 10uM [%] |
| --- | --- |
| CCCn1c(SC(C)C(=O)NCC2CCCO2)nc2cc(Cl)ccc2c1=O (centres unmarked) | 1.08 |
| Cc1ccc(C(=O)N2CCCCCC2)cc1Br | -17.6 |
| CC(C)C(=O)Nc1c2c(nn1-c1ccccc1)CSC2 | 8.39 |
| Cc1ccc(CNC(=O)C2CCC(=O)N(Cc3ccccc3F)C2)s1 (centres unmarked) | -15.7 |
| CN(CCOc1ccc(-c2ccn(S(=O)(=O)c3ccc(Cl)cc3)n2)cc1)c1ccccn1 | 12.9 |
| CCC1CN(C(=O)N2CCC(C(=O)NCc3ccc(C)o3)CC2)c2ccccc2O1 (centres unmarked) | -3.13 |
| Fc1cccc(NC(=S)Nc2ccc(Br)cc2)c1 | 10.3 |
| C=CCn1c(SC(C)C(=O)NCc2ccc3c(c2)OCO3)nc2scc(-c3ccccc3)c2c1=O (centres unmarked) | -31.4 |
| O=C(CNC(=O)Cc1ccc(Cl)cc1)NCC(=O)N1CCCCC1 | 17.9 |
| CCCN(CC(=O)Nc1ccc(Cl)cc1Cl)Cc1cc(=O)n2ccsc2n1 | -37.3 |
| CC1CCCCC1NC(=O)C1CCN(S(=O)(=O)N2CCC3(CC2)OCCO3)CC1 (centres unmarked) | 11.6 |
| COc1ccccc1NC(=S)NCCSc1ccc(C)cc1 | -39.2 |
| C=CCN1C(=O)c2ccc(C(=O)N(C)CC(=O)Nc3ccccc3Cl)cc2C1=O | -25.9 |
| COc1ccc(NS(=O)(=O)c2c(C)[nH]c(=O)[nH]c2=O)c(OC)c1 | 30.7 |
| COc1ccc([C@H]2/C=C\CN(Cc3ccc(N(C)C)cc3)[C@@H](C)C(=O)N2Cc2ccc(F)cc2)cc1 | -10.9 |
| O=C(N/N=C/c1cc2cc3c(cc2nc1Cl)OCCO3)c1ccccc1O | 12 |
| COc1ccc(-c2cc(C(=O)Nc3cc(OC)c(OC)c(OC)c3)no2)cc1 | 13.5 |
| CCOC(=O)N1CCN(c2c(F)cc3[nH]c(=S)[nH]c3c2Br)CC1 | -10.5 |
| CCn1cc(CN2N=C(C)CC2c2ccccc2)c(C)n1 (centres unmarked) | -3.09 |
| COc1ccc(CCC(=O)Nc2ccc(C)c([N+](=O)[O-])c2)cc1 | 1.98 |
| Cl.O=C(OCCN1CCOCC1)C(c1ccccc1)c1ccccc1 | -3.57 |
| O=C(Nc1ccc(N2CCN(Cc3ccccc3)CC2)cc1)c1ccco1 | -8.19 |

| Compound | hERG current change (%, negative = inhibition) at 10uM [%] |
| --- | --- |
| Cc1c(N(C(=O)CNC(=O)c2ccccc2)C2(C(=O)NC3CCCC3)CCCCC2)c(=O)n(-c2ccccc2)n1C | -4.39 |
| CCOC(=O)c1[nH]c(C)c(C(=O)OCC(=O)NCc2ccc(OC)c(OC)c2)c1C | 6.38 |
| O=C(Cn1nc(C(=O)O)c2ccccc2c1=O)Nc1cc(C(F)(F)F)ccc1-n1cncn1 | 1.03 |
| O=C(Cc1cccs1)Nc1ccc(S(=O)(=O)N2CCCCC2)cc1 | 5.37 |
| COc1ccc(C(=O)CC(CC(=O)c2ccc(OC)cc2)C(=O)O)cc1 | 15.4 |
| COc1ccccc1NNC(=O)c1cc(C(C)(C)C)nn1Cc1ccccc1 | -9.89 |
| Br.O=C(CN1CCSC1=NCc1ccccc1)c1ccc(Cl)cc1 | -53.9 |
| CSCc1ccc(C(=O)NCc2ccc(C)cc2)cc1 | -8.98 |
| COc1cc(NS(=O)(=O)c2ccc(NC(=S)NC(=O)COc3ccccc3OC)cc2)nc(OC)n1 | -5.94 |
| O=C(Cn1nnc(-c2ccccc2F)n1)Nc1ccc(C(=O)N2CCOCC2)cc1 | -12.7 |
| Cn1c(CCN2CCN(c3ccccn3)CC2)nc2cc(NC(=O)COc3ccccc3)ccc21 | -72.5 |
| Nc1nncn1C(=O)c1ccc(Cl)cc1Cl | 11.7 |
| CCc1nc2c(c(SC)nn2-c2ccccc2)c(N)c1C(=O)OC | 7.48 |
| O=C(Cc1ccccc1)Nc1ccc(NC(=S)NC(=O)c2ccccc2)cc1 | 9.38 |
| Cc1ccc(C(=O)Nc2ccc(C(=O)N/N=C/c3ccccn3)cc2)cc1 | -2.88 |
| COc1ccc(CC(=O)O/N=C(\N)Cc2ccc(OC)cc2)cc1 | -0.323 |
| COc1cc(/C=N/NC(=O)c2ccc3nc[nH]c3c2)ccc1O | 4.74 |
| COc1cc(/C=N/NC(=O)c2cccc(S(=O)(=O)N3CCCC3)c2)cc(OC)c1O | 12.1 |
| CC(=O)c1cccc(NS(=O)(=O)c2cc(OCC(N)=O)c(C)cc2Cl)c1 | 6.92 |
| CN1CCN(c2ccc(Cl)cc2NC(=O)c2ccc(S(=O)(=O)N3CCCCCC3)cc2)CC1 | 5.4 |
